# At least one structure is not confirmed: it was looked up by name or label, or the drawing left a doubt. Numbered stars: 1 amine (or outer) side, 2 acyl side, 3 side chain; on linkers, the order of the positions; unused ones are H or OH. Bridge positions count the residues as written; N and C are the ends. Square brackets hold non-standard residues; d marks the D form. Peptide text beside a SMILES is read from it. I, II: the chains in the order shown. * marks the point of attachment. Phe(4-CF3) = N[C@@H](Cc1ccc(C(F)(F)F)cc1)C(=O)O; Phe(4-tBu) = CC(C)(C)c1ccc(C[C@H](N)C(=O)O)cc1; Diglycolyl = O=C(COCC(=O)[*:2])[*:1]; Oleoyl = CCCCCCCC/C=C\CCCCCCCC(=O)*; NMeR = CN[C@@H](CCCNC(=N)N)C(=O)O; Palmitoyl = CCCCCCCCCCCCCCCC(=O)*; Myristoyl = CCCCCCCCCCCCCC(=O)*; β3hE = N[C@@H](CCC(=O)O)CC(=O)O; NMeK = CN[C@@H](CCCCN)C(=O)O; Pen = CC(C)(S)[C@H](N)C(=O)O; Lauroyl = CCCCCCCCCCCC(=O)*; Isovaleryl = CC(C)CC(=O)*; Hexanoyl = CCCCCC(=O)*; X5 = O=C(CCC(F)(F)F)*
# Target: α4β7 (Homo sapiens, UniProt P13612+P26010)
# Assay: α4β7-MAdCAM Cell Adhesion Assay (RPMI 8866 human cells)
# Type: cell-based
# Design: host or cells: RPMI 8866 human B lymphoblastoid cells
# Conditions: Table 3-B, Potency (α4β7); range classes; read-out: α4β7 cell (Hu) IC50
# Method: RPMI 8866 human cells (Sigma #95041316) were cultured in RPMI 1640 HEPES medium (Invitrogen #22400-089) supplemented with 10% serum (Fetal Bovine Serum, Invitrogen #16140-071), 1 mM sodium pyruvate (Invitrogen #11360-070), 2 mM L-glutamine (Invitrogen #25030-081) and Penicillin-Streptomycin (Invitrogen #15140-122) at 100 units of penicillin and 100 μg of streptomycin per ml. The cells were washed two times in DMEM medium (ATCC #30-2002) supplemented with 0.1% BSA, 10 mM HEPES pH 7 and 1 mM MnCl2. The cells were re-suspended in supplemented DMEM medium at a density of 4×10^6 cells/ml.
# A Nunc MaxiSorp plate was coated with rh MAdCAM-1/Fc Chimera (R&D #6065-MC) at 200 ng per well in 50 ul per well in 1×PBS and incubated at 4° C. overnight. The solution was then removed by shaking, blocked with 250 ul per well PBS containing 1% BSA, and incubated at 37° C. for 1 hr. The solution was removed by shaking. Peptides were diluted by serial dilution in a final volume of 50 ul per well (2× concentration). To each well, 50 ul of cells (200,000 cells) were added and the plate was incubated at 37° C., 5% CO2 for 30-45 min to allow cell adhesion. The wells were washed manually three times (100 ul per wash) with supplemented DMEM. After the final wash, 100 ul/well of supplemented DMEM and 10 ul/well of MTT reagent (ATTC cat#30-1010K) were added. The plate was incubated at 37° C., 5% CO2 for 2-3 hrs until a purple precipitate was visible. 100 ul of Detergent Reagent (ATTC cat#30-1010K) was added to each well. The plate was covered from the light, wrapped in Parafilm to prevent evaporation, and left overnight at room temperature in the dark. The plate was shaken for 5 min and the absorbance at 570 nm was measured. To calculate the dose response, the absorbance value of control wells not containing cells was subtracted from each test well.
# Chain of α4β7 (P13612 34-1032): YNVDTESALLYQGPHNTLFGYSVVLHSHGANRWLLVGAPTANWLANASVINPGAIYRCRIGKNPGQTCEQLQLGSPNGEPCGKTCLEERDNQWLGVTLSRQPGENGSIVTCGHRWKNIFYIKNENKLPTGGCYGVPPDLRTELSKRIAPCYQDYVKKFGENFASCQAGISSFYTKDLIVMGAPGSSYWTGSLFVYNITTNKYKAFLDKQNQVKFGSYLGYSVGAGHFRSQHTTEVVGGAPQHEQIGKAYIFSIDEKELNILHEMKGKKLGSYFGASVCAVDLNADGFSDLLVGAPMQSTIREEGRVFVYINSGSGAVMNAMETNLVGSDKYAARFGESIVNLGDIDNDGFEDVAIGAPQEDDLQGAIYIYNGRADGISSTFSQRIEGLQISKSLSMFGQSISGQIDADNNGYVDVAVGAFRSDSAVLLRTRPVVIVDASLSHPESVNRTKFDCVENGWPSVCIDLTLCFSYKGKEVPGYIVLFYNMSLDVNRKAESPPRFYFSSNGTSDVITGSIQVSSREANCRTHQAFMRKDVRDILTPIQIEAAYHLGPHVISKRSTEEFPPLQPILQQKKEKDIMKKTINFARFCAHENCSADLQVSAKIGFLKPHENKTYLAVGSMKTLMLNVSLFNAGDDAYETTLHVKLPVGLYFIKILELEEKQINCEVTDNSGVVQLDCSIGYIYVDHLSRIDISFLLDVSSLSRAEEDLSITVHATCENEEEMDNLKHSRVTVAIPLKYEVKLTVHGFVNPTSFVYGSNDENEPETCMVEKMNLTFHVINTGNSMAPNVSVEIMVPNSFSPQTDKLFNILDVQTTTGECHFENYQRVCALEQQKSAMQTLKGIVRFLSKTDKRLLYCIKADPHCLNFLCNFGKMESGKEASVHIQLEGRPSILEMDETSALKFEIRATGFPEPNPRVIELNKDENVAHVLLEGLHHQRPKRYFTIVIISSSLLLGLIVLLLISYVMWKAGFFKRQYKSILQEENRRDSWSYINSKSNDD
# Chain of α4β7 (P26010 20-798): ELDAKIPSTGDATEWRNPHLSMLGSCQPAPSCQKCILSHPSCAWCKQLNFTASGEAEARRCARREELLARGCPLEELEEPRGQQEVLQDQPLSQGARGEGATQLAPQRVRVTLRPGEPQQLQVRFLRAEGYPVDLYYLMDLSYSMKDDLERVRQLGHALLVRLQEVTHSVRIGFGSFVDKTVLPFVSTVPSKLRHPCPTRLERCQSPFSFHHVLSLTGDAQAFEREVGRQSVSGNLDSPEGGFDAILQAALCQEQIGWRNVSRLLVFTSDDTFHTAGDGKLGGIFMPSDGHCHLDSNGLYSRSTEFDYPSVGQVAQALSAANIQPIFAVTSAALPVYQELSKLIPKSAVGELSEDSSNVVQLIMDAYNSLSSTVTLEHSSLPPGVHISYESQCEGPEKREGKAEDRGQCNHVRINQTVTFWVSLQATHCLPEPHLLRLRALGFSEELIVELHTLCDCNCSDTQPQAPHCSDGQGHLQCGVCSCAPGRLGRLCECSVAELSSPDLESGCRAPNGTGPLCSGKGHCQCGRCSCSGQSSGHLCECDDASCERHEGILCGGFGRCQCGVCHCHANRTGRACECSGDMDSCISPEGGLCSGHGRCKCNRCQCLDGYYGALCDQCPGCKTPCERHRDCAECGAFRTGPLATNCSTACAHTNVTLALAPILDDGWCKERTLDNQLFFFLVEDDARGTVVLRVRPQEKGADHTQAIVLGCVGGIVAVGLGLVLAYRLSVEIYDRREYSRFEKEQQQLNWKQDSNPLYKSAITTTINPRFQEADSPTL
row,SMILES,IC50
1,CC(=O)NCCCC[C@@H](NC(=O)[C@@H](CCC(=O)O)NC(=O)[C@H](Cc1c[nH]c2ccccc12)NC(=O)[C@H]1NC(=O)[C@H](CC(C)C)NC(=O)[C@H]([C@@H](C)O)NC(=O)[C@H](CC(=O)O)NC(=O)[C@H](CO)NC(=O)[C@H](CCCNC(=N)N)N(C)C(=O)[C@@H](NC(C)=O)C(C)(C)SSC1(C)C)C(N)=O [compound 66] (Ac-[Pen][NMeR]SDTL[Pen]W[dE][dK](Ac)-NH2; disulfide 1-7; C-terminus assumed),10000 to 100000 nM
2,CC(=O)N[C@@H]1C(=O)N(C)[C@@H](CCCNC(=N)N)C(=O)N[C@@H](CO)C(=O)N[C@@H](CC(=O)O)C(=O)N[C@@H]([C@@H](C)O)C(=O)N[C@@H](CC(C)C)C(=O)N[C@H](C(=O)N[C@@H](Cc2c[nH]c3ccccc23)C(=O)N[C@H](CCC(=O)O)C(=O)N[C@H](CCCCNC(=O)CN(CC(=O)NCCCC[C@@H](NC(=O)[C@@H](CCC(=O)O)NC(=O)[C@H](Cc2c[nH]c3ccccc23)NC(=O)[C@H]2NC(=O)[C@H](CC(C)C)NC(=O)[C@H]([C@@H](C)O)NC(=O)[C@H](CC(=O)O)NC(=O)[C@H](CO)NC(=O)[C@H](CCCNC(=N)N)N(C)C(=O)[C@@H](NC(C)=O)C(C)(C)SSC2(C)C)C(N)=O)C(=O)CCNC(=O)CCOCCOCCOCCOCCNC(=O)CCCCC2SCC3NC(=O)NC32)C(N)=O)C(C)(C)SSC1(C)C (stereo partly drawn) [compound 72],25 to 50 nM
3,"CC(=O)N[C@@H]1C(=O)N(C)[C@@H](CCCNC(=N)N)C(=O)N[C@@H](CO)C(=O)N[C@@H](CC(=O)O)C(=O)N[C@@H]([C@@H](C)O)C(=O)N[C@@H](CC(C)C)C(=O)N[C@H](C(=O)N[C@@H](Cc2ccc(C(F)(F)F)cc2)C(=O)N[C@H](CCC(=O)O)C(=O)N[C@H](CCCCNC(=O)COCC(=O)NCCCC[C@@H](NC(=O)[C@@H](CCC(=O)O)NC(=O)[C@H](Cc2ccc(C(F)(F)F)cc2)NC(=O)[C@H]2NC(=O)[C@H](CC(C)C)NC(=O)[C@H]([C@@H](C)O)NC(=O)[C@H](CC(=O)O)NC(=O)[C@H](CO)NC(=O)[C@H](CCCNC(=N)N)N(C)C(=O)[C@@H](NC(C)=O)C(C)(C)SSC2(C)C)C(N)=O)C(N)=O)C(C)(C)SSC1(C)C [compound 122] (I: Ac-[Pen][NMeR]SDTL[Pen][Phe(4-CF3)][dE][dK]-NH2 / II: Ac-[Pen][NMeR]SDTL[Pen][Phe(4-CF3)][dE][dK]-NH2; disulfide I:1-I:7, II:1-II:7; linker I:10-II:10 via Diglycolyl)",50 to 100 nM
4,"CC(=O)N[C@@H]1C(=O)N(C)[C@@H](CCCNC(=N)N)C(=O)N[C@@H](CO)C(=O)N[C@@H](CC(=O)O)C(=O)N[C@@H]([C@@H](C)O)C(=O)N[C@@H](CC(C)C)C(=O)N[C@H](C(=O)N[C@@H](Cc2ccc(C(C)(C)C)cc2)C(=O)N[C@@H](CCC(=O)O)C(=O)N[C@H](CCCCNC(=O)COCC(=O)NCCCC[C@@H](NC(=O)[C@H](CCC(=O)O)NC(=O)[C@H](Cc2ccc(C(C)(C)C)cc2)NC(=O)[C@H]2NC(=O)[C@H](CC(C)C)NC(=O)[C@H]([C@@H](C)O)NC(=O)[C@H](CC(=O)O)NC(=O)[C@H](CO)NC(=O)[C@H](CCCNC(=N)N)N(C)C(=O)[C@@H](NC(C)=O)C(C)(C)SSC2(C)C)C(N)=O)C(N)=O)C(C)(C)SSC1(C)C [compound 125] (I: Ac-[Pen][NMeR]SDTL[Pen][Phe(4-tBu)]E[dK]-NH2 / II: Ac-[Pen][NMeR]SDTL[Pen][Phe(4-tBu)]E[dK]-NH2; disulfide I:1-I:7, II:1-II:7; linker I:10-II:10 via Diglycolyl)",100 to 500 nM
5,"CC(=O)N[C@@H]1C(=O)N(C)[C@@H](CCCNC(=N)N)C(=O)N[C@@H](CO)C(=O)N[C@@H](CC(=O)O)C(=O)N[C@@H]([C@@H](C)O)C(=O)N[C@@H](CC(C)C)C(=O)N[C@H](C(=O)N[C@@H](Cc2ccc(C(C)(C)C)cc2)C(=O)N[C@@H](CCC(=O)O)C(=O)N(C)[C@@H](CCCCNC(=O)COCC(=O)NCCCC[C@@H](C(N)=O)N(C)C(=O)[C@H](CCC(=O)O)NC(=O)[C@H](Cc2ccc(C(C)(C)C)cc2)NC(=O)[C@H]2NC(=O)[C@H](CC(C)C)NC(=O)[C@H]([C@@H](C)O)NC(=O)[C@H](CC(=O)O)NC(=O)[C@H](CO)NC(=O)[C@H](CCCNC(=N)N)N(C)C(=O)[C@@H](NC(C)=O)C(C)(C)SSC2(C)C)C(N)=O)C(C)(C)SSC1(C)C [compound 126] (I: Ac-[Pen][NMeR]SDTL[Pen][Phe(4-tBu)]E[NMeK]-NH2 / II: Ac-[Pen][NMeR]SDTL[Pen][Phe(4-tBu)]E[NMeK]-NH2; disulfide I:1-I:7, II:1-II:7; linker I:10-II:10 via Diglycolyl)",1000 to 10000 nM
6,CC(=O)N[C@@H]1C(=O)N(C)[C@@H](CCCNC(=N)N)C(=O)N[C@@H](CO)C(=O)N[C@@H](CC(=O)O)C(=O)N[C@@H]([C@@H](C)O)C(=O)N[C@@H](CC(C)C)C(=O)N[C@H](C(=O)N[C@@H](Cc2ccc(C(C)(C)C)cc2)C(=O)N[C@@H](CCC(=O)O)CC(=O)N[C@H](CCCCNC(=O)CCC(F)(F)F)C(N)=O)C(C)(C)SSC1(C)C [compound 169] (Ac-[Pen][NMeR]SDTL[Pen][Phe(4-tBu)][β3hE][dK](X5)-NH2; disulfide 1-7; C-terminus assumed),10 to 25 nM
7,CCCCCC(=O)NCCCC[C@@H](NC(=O)C[C@H](CCC(=O)O)NC(=O)[C@H](Cc1ccc(C(C)(C)C)cc1)NC(=O)[C@H]1NC(=O)[C@H](CC(C)C)NC(=O)[C@H]([C@@H](C)O)NC(=O)[C@H](CC(=O)O)NC(=O)[C@H](CO)NC(=O)[C@H](CCCNC(=N)N)N(C)C(=O)[C@@H](NC(C)=O)C(C)(C)SSC1(C)C)C(N)=O [compound 170] (Ac-[Pen][NMeR]SDTL[Pen][Phe(4-tBu)][β3hE][dK](Hexanoyl)-NH2; disulfide 1-7; C-terminus assumed),10 to 25 nM
8,CC(=O)N[C@@H]1C(=O)N(C)[C@@H](CCCNC(=N)N)C(=O)N[C@@H](CO)C(=O)N[C@@H](CC(=O)O)C(=O)N[C@@H]([C@@H](C)O)C(=O)N[C@@H](CC(C)C)C(=O)N[C@H](C(=O)N[C@@H](Cc2ccc(C(C)(C)C)cc2)C(=O)N[C@@H](CCC(=O)O)CC(=O)N[C@H](CCCCNC(=O)CC(C)C)C(N)=O)C(C)(C)SSC1(C)C [compound 171] (Ac-[Pen][NMeR]SDTL[Pen][Phe(4-tBu)][β3hE][dK](Isovaleryl)-NH2; disulfide 1-7; C-terminus assumed),10 to 25 nM
9,CCCCCCCCCCCC(=O)NCCCC[C@@H](NC(=O)C[C@H](CCC(=O)O)NC(=O)[C@H](Cc1ccc(C(C)(C)C)cc1)NC(=O)[C@H]1NC(=O)[C@H](CC(C)C)NC(=O)[C@H]([C@@H](C)O)NC(=O)[C@H](CC(=O)O)NC(=O)[C@H](CO)NC(=O)[C@H](CCCNC(=N)N)N(C)C(=O)[C@@H](NC(C)=O)C(C)(C)SSC1(C)C)C(N)=O [compound 173] (Ac-[Pen][NMeR]SDTL[Pen][Phe(4-tBu)][β3hE][dK](Lauroyl)-NH2; disulfide 1-7; C-terminus assumed),100 to 500 nM
10,CCCCCCCC/C=C\CCCCCCCC(=O)NCCCC[C@@H](NC(=O)C[C@H](CCC(=O)O)NC(=O)[C@H](Cc1ccc(C(C)(C)C)cc1)NC(=O)[C@H]1NC(=O)[C@H](CC(C)C)NC(=O)[C@H]([C@@H](C)O)NC(=O)[C@H](CC(=O)O)NC(=O)[C@H](CO)NC(=O)[C@H](CCCNC(=N)N)N(C)C(=O)[C@@H](NC(C)=O)C(C)(C)SSC1(C)C)C(N)=O [compound 174] (Ac-[Pen][NMeR]SDTL[Pen][Phe(4-tBu)][β3hE][dK](Oleoyl)-NH2; disulfide 1-7; C-terminus assumed),1000 to 10000 nM
11,CCCCCCCCCCCCCC(=O)NCCCC[C@@H](NC(=O)C[C@H](CCC(=O)O)NC(=O)[C@H](Cc1ccc(C(C)(C)C)cc1)NC(=O)[C@H]1NC(=O)[C@H](CC(C)C)NC(=O)[C@H]([C@@H](C)O)NC(=O)[C@H](CC(=O)O)NC(=O)[C@H](CO)NC(=O)[C@H](CCCNC(=N)N)N(C)C(=O)[C@@H](NC(C)=O)C(C)(C)SSC1(C)C)C(N)=O [compound 175] (Ac-[Pen][NMeR]SDTL[Pen][Phe(4-tBu)][β3hE][dK](Myristoyl)-NH2; disulfide 1-7; C-terminus assumed),500 to 1000 nM

# Same assay, conditions: Table 3-B; cells with plain numbers; read-out: α4β7 cell (Hu) IC50
row,SMILES,IC50
1,CCCCCCCCCCCCCCCC(=O)NCCCC[C@@H](NC(=O)C[C@H](CCC(=O)O)NC(=O)[C@H](Cc1ccc(C(C)(C)C)cc1)NC(=O)[C@H]1NC(=O)[C@H](CC(C)C)NC(=O)[C@H]([C@@H](C)O)NC(=O)[C@H](CC(=O)O)NC(=O)[C@H](CO)NC(=O)[C@H](CCCNC(=N)N)N(C)C(=O)[C@@H](NC(C)=O)C(C)(C)SSC1(C)C)C(N)=O [compound 172] (Ac-[Pen][NMeR]SDTL[Pen][Phe(4-tBu)][β3hE][dK](Palmitoyl)-NH2; disulfide 1-7; C-terminus assumed),965 nM

# — patent US9809623B2, “α4β7 peptide monomer and dimer antagonists” (Protagonist Therapeutics, Inc., priority 2014, dated 2017)
